Test results reported in publication PMC12136788.
This is one part of the list.

B1: chr12:133204733:133204837:+|3pUTR|ENSG00000090612|unk|FALSE|unique (ssRNA)
RNA: GGGAGUUCUACAGUCCGACGAUCCAAAAAGAUAGUAGACAAUACACAGGAAAACUGAAUUUAGUAACCACUCUGAAAAUUUUUAGCAGCAAGUCAUACCUUUUUUUAAAAAGUUCAUACAGGUGAGGAACCAUGUUAAACGUUCAACAGAGGAUUGAGCAUCA
B2: chr5:149857952:149860894:-|three_prime_utr|ENSG00000132915|control|control|control (ssRNA)
RNA: GGGAGUUCUACAGUCCGACGAUCACCACCCUUUCCUGGGAAGAGAUGACUCAAGCCAGUGGAAGACCACACACCUUGAGAAGUAGAAGAGUCAUAGGAUUUGAAAGCUGUUAGAGAAUUUAGCUUCCAGGACUGUUCAAUCUUCAACAGAGGAUUGAGCAUCA
B3: chr10:116672031:116672132:-|3pUTR|ENSG00000165868|msi1|total|mutant (ssRNA)
RNA: GGGAGUUCUACAGUCCGACGAUCCCUUUCCUGCCUUGCAUUAAUGCUAUCUCCCUGUGUACUGUUUCUCUUAAAUGAGCAGACCGAAAUCUGCAGUGUUGGCAGACCGGUGAUGGAGAGGAUGAUAAUUUUAUCUUCUGGCCACAACAGAGGAUUGAGCAUCA
B4: chr14:92797766:92797867:+|CDS|ENSG00000066455|msi1|total|mutant (ssRNA)
RNA: GGGAGUUCUACAGUCCGACGAUCCAUUUUGUGCGAAGAAAAAAGUCAGAACCUGAUGAUGAGCUGCUGUUUGAUUUUCUUAACCGUUCACAGAAGGAGCCUACCGGGAGGGUGGAAAUCAGAAAGGAAAAAGGCAAGACACCUCAACAGAGGAUUGAGCAUCA
B5: chr1:65389253:65389354:+|CDS|ENSG00000116675|unk|total|mutant (ssRNA)
RNA: GGGAGUUCUACAGUCCGACGAUCGUCCGAUGCAUGUGAUGUACCAGAAAAAUAUCCUCAGCUAUUUCAGGUGACACUGGAUGCCGAACUACAGCCCCAUGACAAAGUAACCGACUUAACUCCACCAUGGGAACAUUACUGCACCAACAGAGGAUUGAGCAUCA
B6: chr12:103777333:103777434:-|3pUTR|ENSG00000111696|msi1|total|mutant (ssRNA)
RNA: GGGAGUUCUACAGUCCGACGAUCUCCUGAACAUUUACGGGCUAUGCAUUGGGAACUGCAGGGGCACAGUGAUGGGCAAAGAUCCGCUGCUUCCAGAAGGCUGAUUUCGUGGGCUCCACAAUGGUAAAACGCUGCUGUGAGUGGCAACAGAGGAUUGAGCAUCA
B7: chr8:94832020:94832135:+|CDS|ENSG00000164941|unk|total|mutant (ssRNA)
RNA: GGGAGUUCUACAGUCCGACGAUCGGUACCCGAAGCAGCCCUAAAAUUAAACAAGGAUCUUUAUGUCCAUACGAUGAGAACUCCCGAUUUAUUGGCCAUGGAACCAGGCAUGGUAAAUGGAGAAACUGAGAGUUCUACUGCUGGCAACAGAGGAUUGAGCAUCA
B8: chr18:68676332:68676434:-|3pUTR|ENSG00000166479|msi1_unk|total|mutant (ssRNA)
RNA: GGGAGUUCUACAGUCCGACGAUCAUCAAGAUUAUGAGGUUAAAAAUAAUGUGGUUUUAUACCGCACCGUGGUUUUAUUUUGUCCGUUAUUUUUAAAGGAGAAGAAAUGUUACUUUUUAACUUUAUACUCAGUUGCAUUAUCAUCAACAGAGGAUUGAGCAUCA
B9: ENSG00000107863:be:win_2001|CDS|ENSG00000107863|bound_else_gene|NA|bound_elsewhere_windowed (ssRNA)
RNA: GGGAGUUCUACAGUCCGACGAUCAAGGACUGACAGUGCCCCCGAUCAGCAAGUGGAGACUGGGAAAUCCCCCUCUUUAUCUGGAGCCUCUGCCAAGCCUGCCCCUCAGUCGAGUGAAAACGCUGGUACUUCAGAUUUAGAACUCAACAGAGGAUUGAGCAUCA
B10: chr1:112912765:112912828:-|3pUTR|ENSG00000155380|msi1_unk|total|mutant (ssRNA)
RNA: GGGAGUUCUACAGUCCGACGAUCUUAAGGUUUGCAAAUUAAAAAGGGCCAGAAAAAUUUGGCACCAGGCAAACGAAUAAAGACCGGAUUGGGAAAGAAGUUGCUAAGUGUGCUCCGUUUUAAUAAGUAAUUCCUUCUCUUUUUCAACAGAGGAUUGAGCAUCA
B11: chr1:228098371:228098472:+|3pUTR|ENSG00000143761|msi1_unk|total|mutant (ssRNA)
RNA: GGGAGUUCUACAGUCCGACGAUCUGUGUUGAAAUCCAUUUUGGUGGUUGGUUUUUAACCCAAACUCAGUGCAUUUUUUAAAACCGUUAAGAAUCCAAGUCGAGAACACUUGAACACACAGAAGGGAGACCCCGCCCCGCACCGCAACAGAGGAUUGAGCAUCA
B12: chr4:100395340:100398373:-|three_prime_utr|ENSG00000164035|control|control|control (ssRNA)
RNA: GGGAGUUCUACAGUCCGACGAUCGGGGCUCUCCUGUUCUCUCACAUUUAAAAAUUCCAUUACUCCAUUUACAGGAGCGUUCCUAGGAAAAGGAAUUUUAGGAGGAGAAUUUGUGAGCAGUGAAUCUGACAGCCCAGGAGGUGGCAACAGAGGAUUGAGCAUCA
B13: chr16:46660370:46660459:-|3pUTR|ENSG00000069329|msi1_unk|total|mutant (ssRNA)
RNA: GGGAGUUCUACAGUCCGACGAUCAAAAGGAAACCGCUCACCAUACUCCUUUCCAUGUACAUCCAGUGAGGGUUUUAUUACGCCCGGUUUCCCUUCCACCGAUUGUGCCUUUCAGAAAUGCUGAGGCCGGUUUCCCAUUUCUUACAACAGAGGAUUGAGCAUCA
B14: chr4:113382420:113382521:+|3pUTR|ENSG00000145362|msi1|total|mutant (ssRNA)
RNA: GGGAGUUCUACAGUCCGACGAUCUCUUCAGGUCUUCCGAUCUUGGACAAGUUGGCAGGGUAUUUUAAAAGCUAUAACUACUGCCGUUUUCCAGUUUUCAUUGCUGCUUCCGCAAACCACGCUGUCUUACAGUGGUACUUUCUUCAACAGAGGAUUGAGCAUCA
B15: chr8:18872320:18872424:-|CDS|ENSG00000156011|unk|total|mutant (ssRNA)
RNA: GGGAGUUCUACAGUCCGACGAUCGCCAGAAUCAUUUCCGGAACAUUACAGGCUACAAAGGUACUGGACCAAGAUGCUGUUUCCCGUUUUUCAGUUCAGCAGGUGGAAAAAGAGCUGGACACUGCCAGUCGUAAAACACAGAGACAACAGAGGAUUGAGCAUCA
B16: ENSG00000163636:stop:overlap|stop_codon|ENSG00000163636|stop_codon|NA|stop_codon (ssRNA)
RNA: GGGAGUUCUACAGUCCGACGAUCUCUUCCAAUCAUUAGGGAACUGUCCAGGUUUAUUGCUGCCGGGAGACUACACUGCAAAAUAGAUAAAGUGAAUGAAAUAGUAGAAACCAACAGACCUGAUAGCAAGAACUGGCAGUACCACAACAGAGGAUUGAGCAUCA
B17: chr1:228098150:228098251:+|3pUTR|ENSG00000143761|msi1_unk|total|mutant (ssRNA)
RNA: GGGAGUUCUACAGUCCGACGAUCGCACCGUGCUGUAAAUGUGGCAGACGCAGCCUGCGGCCAGGCUUUUUAUUUAAUGUAAACCGUUUUUGUUUCCAAUGAGGCAGUUUCUGGUACUCCUAUGCAAUAUUACUCAGCUUUUUUCAACAGAGGAUUGAGCAUCA
B18: chr5:141515046:141515147:-|3pUTR|ENSG00000131504|msi1_unk|FALSE|overlapping (ssRNA)
RNA: GGGAGUUCUACAGUCCGACGAUCAAAAAGAGAGAGAGAGAGAGGUGUGAGGGACAAAAUGCAAACCUAUUUCCCUUGCCUCAUAGGCUUCUGGGAUGUCAUCACCUCCAGUUUGUUGGUUUUGUUUCCAACUGUUAAUAAAGCCAACAGAGGAUUGAGCAUCA
B19: chr20:49372985:49374992:-|CDS|ENSG00000158445|control|control|control (ssRNA)
RNA: GGGAGUUCUACAGUCCGACGAUCCAUCUACACCACAGCAAGUGCUAAGACACCCCCCCGGUCUCCUGAGAAACACACAGCAAUAGCGUUCAACUUUGAGGCGGGUGUCCACCAGUACAUUGACGCAGACACAGAUGAUGAGGGCAACAGAGGAUUGAGCAUCA
B20: chr10:121957106:121957207:-|3pUTR|ENSG00000107672|msi1|total|mutant (ssRNA)
RNA: GGGAGUUCUACAGUCCGACGAUCUGUAUCGUACAUAUUGUAUGAUUCAACAUUUUUAAAGGCAGAUUGUUUUCCGUAAAAUGCCGCUUUUGACCGUUAAUAAAUUUGUCAUGGUUGUCUUUGAUUAAAGGAAACUCACCGCCACAACAGAGGAUUGAGCAUCA
B21: chr2:226864888:226864989:+|CDS|ENSG00000144468|unk|FALSE|unique (ssRNA)
RNA: GGGAGUUCUACAGUCCGACGAUCUGCUGAUGAUUGGCAUUUGUAUUUCAAUAUGGCAUCCAUGCUCUGGAAAGGAAUAAAUCUAGAAAGAAGACUGGGAAGUAGAUGGUUUGCCUAUGUUAUCACCGCAUUUUCUGUACUUACCAACAGAGGAUUGAGCAUCA
B22: chr14:60975662:60975785:-|CDS|ENSG00000126814|unk|FALSE|unique (ssRNA)
RNA: GGGAGUUCUACAGUCCGACGAUCGAAAGAAAACCCUCUGUGCACGUUGUCAUGAACUUGCCAGCAAAAGCUAUAGAGUUUCUUAGUGCUUUCAAGUGGCUUUUAGAUGGGCAGCCAUGCAGCAGUGAGUUCCUUCCCAUAGUGCAACAGAGGAUUGAGCAUCA

Target: MSI1 full-length (mouse, UniProt Q61474 1-362)
Chain of UniProt Q61474 (Q61474 whole entry): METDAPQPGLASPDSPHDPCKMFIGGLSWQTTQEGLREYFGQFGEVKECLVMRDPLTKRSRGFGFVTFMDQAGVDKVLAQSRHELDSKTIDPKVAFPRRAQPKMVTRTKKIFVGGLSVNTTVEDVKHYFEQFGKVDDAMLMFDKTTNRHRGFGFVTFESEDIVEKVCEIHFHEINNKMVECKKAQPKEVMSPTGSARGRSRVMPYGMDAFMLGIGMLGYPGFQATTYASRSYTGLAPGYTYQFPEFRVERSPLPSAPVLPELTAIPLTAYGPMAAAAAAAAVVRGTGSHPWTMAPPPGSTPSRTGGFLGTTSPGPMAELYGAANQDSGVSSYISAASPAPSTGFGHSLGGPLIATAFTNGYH
Assay: nsRBNS (natural sequence RNA bind-n-seq); RBNS binding buffer (assumed for nsRBNS): 25 mM Tris pH 7.5, 150 mM KCl, 3 mM MgCl2, 0.01% Triton X-100, 500 ug/ml BSA, 20 U/ml SUPERase-In, 4 C; UNK is unkempt and MSI1 is Musashi-1; names of the RNAs are library labels; protein concentration not given here; high values mean tight binding

Row | Binder | binding signal
1 | B1 | 3.58 enrichment R
2 | B2 | 1.85 enrichment R
3 | B3 | 0.355 enrichment R
4 | B4 | 0.479 enrichment R
5 | B5 | 0.51 enrichment R
6 | B6 | 0.553 enrichment R
7 | B7 | 0.608 enrichment R
8 | B8 | 0.295 enrichment R
9 | B9 | 0.641 enrichment R
10 | B10 | 0.277 enrichment R
11 | B11 | 0.398 enrichment R
12 | B12 | 0.493 enrichment R
13 | B13 | 0.39 enrichment R
14 | B14 | 0.277 enrichment R
15 | B15 | 0.457 enrichment R
16 | B16 | 1.03 enrichment R
17 | B17 | 0.764 enrichment R
18 | B18 | 0.519 enrichment R
19 | B19 | 0.624 enrichment R
20 | B20 | 0.237 enrichment R
21 | B21 | 0.265 enrichment R
22 | B22 | 1.21 enrichment R
